The source of these data is PMC7819943, “Rice protein-binding microarrays: a tool to detect cis-acting elements near promoter regions in rice”.

The list shows a part of the results.

The assay concerns the target T1, OsWOX13 (Oryza sativa, UniProt Q5QMM3 1-267).
T1 sequence: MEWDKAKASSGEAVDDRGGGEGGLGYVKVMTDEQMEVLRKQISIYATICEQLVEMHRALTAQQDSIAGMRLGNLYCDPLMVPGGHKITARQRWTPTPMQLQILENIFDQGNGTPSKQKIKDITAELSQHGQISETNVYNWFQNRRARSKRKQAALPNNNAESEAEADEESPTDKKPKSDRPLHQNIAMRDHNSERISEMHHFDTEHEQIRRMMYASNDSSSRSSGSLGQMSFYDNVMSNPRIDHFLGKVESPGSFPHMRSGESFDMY
The assay can be described thus: protein-binding microarray (RPBM); PBS, 2% BSA, 51.3 ng/ul salmon testes DNA, 50 uM zinc acetate, 200 nM TF, 25 C, 1 h; high values mean tight binding. As to conditions: protein: recombinant; tags: N-terminal polyhistidine and DsRed monomer fusion (pET32a); label: CyDye5-dUTP incorporated in the synthesized complementary strand; 3' TTTTT single-stranded linker to array surface; dsDNA, one strand shown. In short, it runs like this: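 In PBS with 2% BSA, salmon testes DNA and 50 µM zinc acetate, 200 nM protein was incubated on a custom Agilent array at 25 °C for 1 h and then washed off. The array had been made double-stranded by primer extension with Cy5-dUTP and blocked with 2% BSA. The proteins were transcription factors fused N-terminally to polyhistidine and DsRed, expressed in E. coli BL21-CodonPlus and purified on Ni–NTA. The binding signal is per-feature fluorescence intensity (arbitrary units) from an Axon 4000B scanner.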
With “CAAATGACAAATTGCCAAGTTTTACTACTAGTGTTTAGATCGGAGTCACCTAGTGCAG”, the binding signal is 12800 fluorescence intensity (a.u.). The result for “CCCTTGACGCTTCATTTCCGTCTTCTCATTTAAACTTTATCGGAGTCACCTAGTGCAG” reads 4050 fluorescence intensity (a.u.); that for “AATATATAATTAATCATTCATTAATGTTTGTGCCGCGATTCGGAGTCACCTAGTGCAG”, 31500 fluorescence intensity (a.u.); that for “GCAATTAATTAATTCTCCATCGTTGCAAGTTAGCCAATTTCGGAGTCACCTAGTGCAG”, 38200 fluorescence intensity (a.u.).

Take “CCAAACTGAAGCATATGTCAGCCATCAATTGAGTGGCCTCCGGAGTCACCTAGTGCAG”: the binding signal is 4230 fluorescence intensity (a.u.). Next, “GGGGATGGATGGATGGATGGATTAATCTCCCCAAATGGAACGGAGTCACCTAGTGCAG”: 7060 fluorescence intensity (a.u.). With “TATTTCGTGGTGTCATTGTGATTGATCCAAGTGCTCTGACCGGAGTCACCTAGTGCAG”, the binding signal was 8510 fluorescence intensity (a.u.). In the case of “ATAAAGATGGACTGCTGGAATTGACATTACCTGACATCAGCGGAGTCACCTAGTGCAG”, the binding signal was 7760 fluorescence intensity (a.u.). The result for “TAATAGTTATAATTTAAATGTATATCACTATATGCTGTTACGGAGTCACCTAGTGCAG” reads 4830 fluorescence intensity (a.u.); that for “CAAGATTGTTTGTGTATGAATTTTCTTCTCTCATAGATTACGGAGTCACCTAGTGCAG”, 9410 fluorescence intensity (a.u.). The result for “TGAAATTTATTAATCAATGAACTAAATTACTCCCTCGAGTCGGAGTCACCTAGTGCAG” reads 24500 fluorescence intensity (a.u.). Next, “ACGTGATTTGGGTTTTGGCCGCCGCCCAGCTGCAAGTCTGCGGAGTCACCTAGTGCAG”: 23200 fluorescence intensity (a.u.); “ATTTGCCTAGGCTAATTAGTAATTACAGTGCTATGTTCTCCGGAGTCACCTAGTGCAG”: 7160 fluorescence intensity (a.u.); “TCTAGATTTATCTTTAGAATTTAAATCATTTTGGACAAAGCGGAGTCACCTAGTGCAG”: 3770 fluorescence intensity (a.u.). As for “TGGGATGATTGAGCACCAGTGATTTCGTATCCGGTCAAAACGGAGTCACCTAGTGCAG”, the binding signal is 25500 fluorescence intensity (a.u.). Next, “ATGAGATAAATTGATTGTTAACCATGTATGTCTCTAAGGTCGGAGTCACCTAGTGCAG”: 56400 fluorescence intensity (a.u.); “GACTTCTCAACACATGATTAATTAAGTATTAATTAATTTTCGGAGTCACCTAGTGCAG”: 6280 fluorescence intensity (a.u.).

For the sequence “GCTAATTGGGCCTTCAGGTAGGGGTGGGCGTTCGGTCTGACGGAGTCACCTAGTGCAG”, the binding signal is 40000 fluorescence intensity (a.u.).

Turning to “TATAATTTATAAATAACTAAAATTTGATATTGAAAATAATCGGAGTCACCTAGTGCAG”, the binding signal was 4160 fluorescence intensity (a.u.).

For “ATTGACTGCAACAGCTGAGAACTTGAACCCTCAGATCGATCGGAGTCACCTAGTGCAG”, the binding signal was 6640 fluorescence intensity (a.u.). Next, “TGGGTAATTACCGCCGGGATCAGGATCCGACGCCCAGATCCGGAGTCACCTAGTGCAG”: 16000 fluorescence intensity (a.u.); “TGTGTCATGATTGCATGGGATTTAAAATAGGCTAGAATAGCGGAGTCACCTAGTGCAG”: 12800 fluorescence intensity (a.u.). Take “TTGGATAAGATGAACTTCAATCAATTTGCGGGCAAACCTTCGGAGTCACCTAGTGCAG”: the binding signal is 9080 fluorescence intensity (a.u.). Next, “ATTATTGAATTATTATTGCATTATTATTATTGGATGGTTACGGAGTCACCTAGTGCAG”: 14800 fluorescence intensity (a.u.); “TTAATTAGGTTTAATAGATTCATCTCGCAGTTTACAGGCACGGAGTCACCTAGTGCAG”: 18500 fluorescence intensity (a.u.).

For “CTTGACTGAATATGAGAAGCTGTAGCTGCAAAGTTCAGAACGGAGTCACCTAGTGCAG”, the binding signal was 14000 fluorescence intensity (a.u.).

Consider “TACGCAATTATAATTTATTTTGTTATGAGTCGTTTTATCACGGAGTCACCTAGTGCAG”, for which the binding signal is 11900 fluorescence intensity (a.u.).

For “TCAAACAGATTAAATACGAGCCCCTTTACGACATGCGAGCCGGAGTCACCTAGTGCAG”, the binding signal is 13900 fluorescence intensity (a.u.). Next, “GGAATAACAATTAGATTTGGTGCAATGACAATGGTGAGACCGGAGTCACCTAGTGCAG”: 7260 fluorescence intensity (a.u.); “AGTTAAATTTAGCATGTAAGTGCAGAGCCACTGTTTGTGTCGGAGTCACCTAGTGCAG”: 6520 fluorescence intensity (a.u.); “AGGGGATGTGATAATGACACGGATTAACTCAGTATAATGCCGGAGTCACCTAGTGCAG”: 3350 fluorescence intensity (a.u.).

“CCTGATTTCAGTGTGGGAACACAGAATAAACACATTAGTCCGGAGTCACCTAGTGCAG”: the binding signal is 6790 fluorescence intensity (a.u.). Take “TTACCAATTACAATGCAGTTACACTTCAATTATACTATAACGGAGTCACCTAGTGCAG”: the binding signal is 11800 fluorescence intensity (a.u.). Next, “ATAAATTTAGCCTCTTTTGTTTAGTATTGCAACTACCAATCGGAGTCACCTAGTGCAG”: 3440 fluorescence intensity (a.u.); “ATTCTACTATTGATTGATCATGTGTTTTAGTTATCACATCCGGAGTCACCTAGTGCAG”: 40600 fluorescence intensity (a.u.). The result for “TAACAAATGATTTGCTCCTGGTCTTTGCTACTGCAGTGCACGGAGTCACCTAGTGCAG” reads 16500 fluorescence intensity (a.u.); that for “ATTAATTGGTCGTGTATTAGCAAACGATATATATATCGGTCGGAGTCACCTAGTGCAG”, 50500 fluorescence intensity (a.u.). Regarding “CTCTAAACATACATTAAACGTGCACCGACGAATGGACATGCGGAGTCACCTAGTGCAG”, the binding signal was 3950 fluorescence intensity (a.u.). In the case of “AGAGATCATGGAATTGATTTTCTCTTTGGGCCTGTTTGGCCGGAGTCACCTAGTGCAG”, the binding signal is 5960 fluorescence intensity (a.u.). Next, “CTTTTCAGTCACATCATCTCCAATTTCAACCAAAATCCAACGGAGTCACCTAGTGCAG”: 3350 fluorescence intensity (a.u.); “GCCATATGATTATTTAATCTGATCCGGAGGATTAAACAAGCGGAGTCACCTAGTGCAG”: 14100 fluorescence intensity (a.u.); “TACAGACTAGTATTAATTAGTTACTAAGCAGATTAGAATTCGGAGTCACCTAGTGCAG”: 7470 fluorescence intensity (a.u.). As to “CTGTCTAAATCATTTGTCTCCGCATCCATCCACTTTTAGGCGGAGTCACCTAGTGCAG”, the binding signal was 3600 fluorescence intensity (a.u.).

As to “TGAGTATATGATTGAATCTGAAATTGTCCCTTATTCTAGGCGGAGTCACCTAGTGCAG”, the binding signal was 28800 fluorescence intensity (a.u.). For the sequence “CACACACTGATGACTGACCCCGCCACCTTCTCGTAATTGCCGGAGTCACCTAGTGCAG”, the binding signal was 6630 fluorescence intensity (a.u.). The result for “TTACCAGTGGTGATTAATGATTTGTCACTAGGCCTACATGCGGAGTCACCTAGTGCAG” reads 10000 fluorescence intensity (a.u.); that for “ATTTTAGATTGTATTCCTATTTGGACTCTCCTTTCCTTTTCGGAGTCACCTAGTGCAG”, 11700 fluorescence intensity (a.u.).

As for “GTTTATTTTAACAAATTTGGTGGTTTACACTTCAACGCTTCGGAGTCACCTAGTGCAG”, the binding signal was 4710 fluorescence intensity (a.u.). For the sequence “AATCAATCTAGTCCTTTCTAGATTGGTCTCATTTGTGTTCCGGAGTCACCTAGTGCAG”, the binding signal was 31300 fluorescence intensity (a.u.).

Consider “TGAGTCTAATTACGCCATGATTTTGACAATGTGATGCTACCGGAGTCACCTAGTGCAG”, for which the binding signal is 22800 fluorescence intensity (a.u.). Next, “CTAAATATTTCATTTGTAAATTAATTTCTATTCTATTCAACGGAGTCACCTAGTGCAG”: 6510 fluorescence intensity (a.u.); “CACAATGTGACAAGAGATTGATATTAGAGAGCATCTCCAGCGGAGTCACCTAGTGCAG”: 7320 fluorescence intensity (a.u.); “CAAATTAGTATGCAATCAGTGAATATATCCACGTAATTTGCGGAGTCACCTAGTGCAG”: 22100 fluorescence intensity (a.u.). Next, “TGGCAATCAATCGATCCCCTCTCTCATCCGCTCCGCTCACCGGAGTCACCTAGTGCAG”: 7460 fluorescence intensity (a.u.).
